Assay results reported in US20020123504A1, “Lactose-free, non-hygroscopic and anhydrous pharmaceutical compositions of descarboethoxyloratadine” (SEPRACOR INC., priority 1997, published 2002).

Legend:
[1] = Reactivity with lactose under accelerated storage (60° C. at 75% RH); settings: for % Initial: 80% lactose/5% H2O, particle sizes reduced with mortar and pestle
[2] = Excipient compatibility of DCL by differential scanning calorimetry (DSC); settings: DCL dry blended with STARCH 1500, 80% excipient to 20% drug

Compound	% Initial ([1]; 2 weeks 60° C./75% RH)	% Initial ([1]; 4 weeks 60° C./75% RH)	DSC behavior, drug/excipient interaction [2]	Reactivity with lactose ([1]; similar conditions (60° C./75% RH), including samples with 5% water)
Clc1ccc2c(c1)CCc1cccnc1C2=C1CCNCC1 [DCL, 8-chloro-6,11-dihydro-11-(4-piperidylidene)-5H-benzo[5,6]cyclohepta[1,2-b]pyridine]	49.07%	48.80%	does not appear to be a DCL/STARCH 1500® interaction	–
CCOC(=O)N1CCC(=C2c3ccc(Cl)cc3CCc3cccnc32)CC1 [Loratadine, loratadine]	–	–	–	negligible
